Assay results from PubChem BioAssay AID488969 (Vanderbilt High Throughput Screening Facility, 2010).
“And” between values parts separate entries of the source, which are not always exact repeats. Identical values can stand only once. Over roughly 110,000 compounds, “z-score” has its median near -0.1; the highest 2% begin near 2. This is one part of the list. The source made the active and inactive calls.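 The calls were made as follows: active = z-score in the third read window above 3 or below -3; inactive = the rest.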

The compounds below were run against Metabotropic glutamate receptor 8 (Rattus norvegicus) (UniProt P70579) (assay: rat mGluR8 modulators via GIRK flux, primary screen, cell-based, thallium flux, HTS (AID 488969)). Conditions: HEK293 rat mGluR8, GIRK (G protein-gated inwardly rectifying potassium channel) thallium flux, FluoZin2; at 10 µM; stronger effect = higher value; submaximal glutamate (EC20) added with thallium.
Chain of UniProt P70579 (P70579 whole entry, looked up): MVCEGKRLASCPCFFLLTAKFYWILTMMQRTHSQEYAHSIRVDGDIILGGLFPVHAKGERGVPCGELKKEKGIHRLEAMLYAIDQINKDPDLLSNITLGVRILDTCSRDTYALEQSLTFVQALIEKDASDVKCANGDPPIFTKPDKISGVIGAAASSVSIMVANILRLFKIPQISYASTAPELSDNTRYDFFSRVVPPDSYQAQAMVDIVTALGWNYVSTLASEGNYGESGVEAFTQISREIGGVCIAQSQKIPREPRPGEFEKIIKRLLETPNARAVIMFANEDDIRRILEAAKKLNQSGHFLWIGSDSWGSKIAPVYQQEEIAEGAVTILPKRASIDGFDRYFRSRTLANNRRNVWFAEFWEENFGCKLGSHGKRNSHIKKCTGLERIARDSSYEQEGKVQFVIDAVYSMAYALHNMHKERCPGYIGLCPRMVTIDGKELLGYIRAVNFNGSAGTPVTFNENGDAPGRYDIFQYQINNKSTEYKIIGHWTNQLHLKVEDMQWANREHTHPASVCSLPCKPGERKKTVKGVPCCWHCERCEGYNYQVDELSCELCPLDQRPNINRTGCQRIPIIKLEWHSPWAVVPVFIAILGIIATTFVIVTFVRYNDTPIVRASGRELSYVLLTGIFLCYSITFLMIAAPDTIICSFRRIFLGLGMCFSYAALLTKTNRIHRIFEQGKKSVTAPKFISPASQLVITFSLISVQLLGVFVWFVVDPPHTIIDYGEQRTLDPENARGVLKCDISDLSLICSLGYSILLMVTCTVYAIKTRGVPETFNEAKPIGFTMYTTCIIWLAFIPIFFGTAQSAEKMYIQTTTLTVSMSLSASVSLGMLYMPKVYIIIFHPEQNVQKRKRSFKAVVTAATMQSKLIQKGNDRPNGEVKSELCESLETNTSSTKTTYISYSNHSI

Structure (SMILES)	z-score
Cc1ccc(N=Cc2cc3c(cc2O)OC(N)=C(C#N)C3c2ccccc2)cc1 (stereo unspecified)	active: 6.28
CCC(=O)Nc1ccc(-c2nn3c(C)nnc3s2)cc1C	0.0498
COc1ccc(NC(=O)C(C)N2c3cccc4cccc(c34)S2(=O)=O)cc1OC (stereo unspecified)	-0.0966
CN1CCN(C(=O)c2cnn3c(C(F)F)cc(C4CC4)nc23)CC1	-0.139
Cc1ccc(OCC(=O)Nc2ccc(N3CCCC3)cc2)cc1C	0.163
Cc1cnc(C(=O)OCC(=O)c2csc(N3CCCCC3)n2)cn1	1.52
Cc1cccc(NS(=O)(=O)c2ccc3c(c2)Cc2cc(S(=O)(=O)Nc4cccc(C)c4C)ccc2-3)c1C	-0.185
COc1ccc(-c2nc3ccccc3o2)cc1NC(=O)CSc1ccc(Cl)cc1	-0.0379
CC(=O)CSc1nnc(Cc2ccc([N+](=O)[O-])cc2)o1	-0.494
Cc1cc2cc3c(cc2nc1SCC(=O)Nc1ccccc1)CCC3	-0.0628
Clc1cccc(CNc2nnnn2-c2ccccc2)c1	0.0987
COCCCNCCOCCSc1ccc(Cl)cc1	0.918
N#CC1=C(N)Oc2n[nH]c(-c3cccs3)c2C1c1ccco1 (stereo unspecified)	active: -3.57
CCCC(=O)NC(c1cccs1)c1cc([N+](=O)[O-])c2cccnc2c1O (stereo unspecified)	2.37
COc1ccc(/C=N/NC(=O)c2nc(-c3ccccc3)cc(-c3ccccc3)n2)cc1OC	0.42
COc1ccc(S(=O)(=O)N(C)CC(=O)N2CCOCC2)cc1Cl	-1.29
CN(Cc1ccccc1)c1nc(-c2cccc([N+](=O)[O-])c2)nc2ccccc12	-0.185
COc1ccc(Sc2cc(C(F)(F)F)nc(-c3ccccn3)n2)cc1	-0.417
CN1CCN(C(=O)c2cc3c(C(F)(F)F)nn(C)c3s2)CC1	0.145
O=C(NC1CCCCC1)N1CCC(c2nc3ccccc3[nH]2)CC1	0.0638
CCCSc1nc2c(c(=O)n(C)c(=O)n2C)n1Cc1ccc(C)cc1	-0.518
CCc1ccc(N2C(=O)Cc3c2nc(N)c(C#N)c3N)cc1	-0.00155
COc1cc(-c2nnc(CSc3nnc4nc(C)cc(C)n34)o2)cc(OC)c1OC	-0.228

Structure (SMILES)	z-score
Cc1ccc(-n2c(-c3nn(C)c(C)c3Cl)n[nH]c2=S)cc1	-0.213
CC(=O)Nc1ccc(NS(=O)(=O)c2ccc(Cl)c(C(=O)O)c2)cc1	1.08
CN1CCC(=NNC(=O)C(=O)Nc2ccccc2)CC1	-0.494
C=CCn1c(SCC(=O)N2CCc3ccccc3C2)nc2sc(C)c(C)c2c1=O	-0.981
O=C(CSc1nc(-c2ccc(F)cc2)cc(C(F)(F)F)n1)NCCN1CCOCC1	0.00416
CC(C)OC(=O)C1C(=O)CC(C)(O)C(C(=O)OC(C)C)C1c1cccc(O)c1 (stereo unspecified)	0.0244
CCS(=O)(=O)N1CCCC(C(=O)NCCCOC(C)C)C1 (stereo unspecified)	-0.406
COc1ccc(NC(=O)OCC(C)C)cc1OC	0.00658
O=C(c1ccc(-n2cnnn2)cc1)N1CCN(C(c2ccccc2)c2ccccc2)CC1	-0.399
CCOC(=O)c1c(NC(=O)C(Sc2ccccc2)c2ccccc2)sc(C(N)=O)c1C (stereo unspecified)	-0.216
CCOC(=O)N1CCC(NC(=O)CSCc2cnn(-c3ccccc3)c2-n2cccc2)CC1	-0.7
O=C(Cn1nc(C(F)(F)F)c2c1CCC2)Nc1ccccc1C(F)(F)F	-0.132
CCSc1nc2ccccc2c(=O)n1OCC(=O)OC	-0.148
COC(=O)c1ccccc1NC(=O)c1ccc2c(c1)OCCO2	-0.887
O=C(COC(=O)C12CC3CC(CC(C3)C1)C2)Nc1nc2c(F)c(F)c(F)cc2s1	-0.635
CCc1noc(C)c1C(=O)N1CCOCC1	0.252
NN1C(=O)c2cccc3c(C(=O)O)ccc(c23)C1=O	0.219
Cn1nnnc1SCc1ccc(C(=O)Nc2ccc(Br)cc2)cc1	-0.0576
Cc1ccc(C(=O)C2=C(O)C(=O)N(CCCn3ccnc3)C2c2ccc(OC(C)C)cc2)o1 (stereo unspecified)	0.882
CCC(=O)Nc1nc(-c2ccccc2)ns1	0.249
CCOC(=O)c1[nH]c(C)c(/C(O)=C2\C(=O)C(=O)N(CCCn3ccnc3)C2c2ccncc2)c1C (stereo unspecified)	-0.672
CCOC(=O)c1cnc(SCC(=O)Nc2ccc(N3CCOCC3)cc2)nc1N	-0.1
COc1ccccc1N1C(=O)c2ccccc2NC1C(OC)OC (stereo unspecified)	0.107

Structure (SMILES)	z-score
CCCNC(=O)c1cn(CC)c2cc(N3CCN(C)CC3)c(F)cc2c1=O	-0.0575
Cc1ccccc1NC(=S)NC(NC(=O)c1ccco1)C(Cl)(Cl)Cl (stereo unspecified)	-0.217
COc1ccc(S(=O)(=O)Nc2cccc(C)n2)c2ccccc12	-0.106
CC1(C(=O)CSc2n[nH]c(-c3ccccc3Cl)n2)CCC(=O)O1 (stereo unspecified)	-0.451
COC(=O)c1c(NC(=O)c2ccccc2)sc2c1CC(C)(C)OC2	0.169
Cn1nc(-c2ccccc2)c(CSc2ccccc2)c1Cl	-0.181
CC(C)C(=O)Nc1ccc2oc(-c3cc(F)c(F)cc3Cl)nc2c1	-0.243
Nc1nc(SCc2nc3scc(-c4ccccc4)c3c(=O)[nH]2)n[nH]1	0.366
CCn1cnc2cc(NCc3cccc(OC)c3O)ccc21	-0.0422
O=C(NC1CCCCC1)c1ccc(S(=O)(=O)NCc2cccnc2)cc1	0.0275
CCCCCCCC[n+]1cccc(C(=O)N2c3c(nc(N)[nH]c3=O)NC(C)C2C)c1 (stereo unspecified)	0.119
CCOc1ncccc1C(=O)OCC(=O)N1CCN(S(=O)(=O)c2ccccc2)CC1	-0.128
O=C(CCN1C(=O)/C(=C/C=C/c2ccccc2)SC1=S)Nc1nccs1	-0.78
COc1ccccc1OCc1ccc(C(=O)N2CCN3CCCC3C2)cc1 (stereo unspecified)	0.356
C/C(=N/NC(=O)c1sc(NS(=O)(=O)c2ccccc2)nc1C)c1ccccc1	0.345
CCn1c(SCC(=O)N2c3ccccc3Sc3ccccc32)nnc1-c1ccco1	-2.42
CCN(CC)CCCOc1nc(C)nc2c1oc1ccccc12	0.0553
CCOc1ccc(Cl)cc1CN1CCOCC1	-0.517
COc1cc(C(=O)N2CCC(NC(=O)C(Cc3ccccc3C)NC(C)=O)CC2)cc(OC)c1OC (stereo unspecified)	0.0625
CCC(C)(C)n1nnnc1C(c1ccc2ncccc2c1)N1CCCC(C)C1 (stereo unspecified)	-0.575
COc1cccc(OC)c1OCCOc1ccccc1OC(C)C	-0.203
O=C(OCCN1CCOCC1)c1cccnc1	-0.0644 and 0.725
CCn1nc(C(=O)Nc2cccc3ccccc23)c(Cl)c1Cl	-0.173

Structure (SMILES)	z-score
CC1CC(C)CN(CCCNC(=O)Cc2c(C(=O)O)n(C)c3ccccc23)C1 (stereo unspecified)	0.0115
CCc1ccc2nc3n[nH]c(N)c3cc2c1	-0.0989
O=C(CS(=O)c1ccc(C(F)(F)F)cc1[N+](=O)[O-])Oc1ccccc1 (stereo unspecified)	-0.141
CCCS(=O)(=O)N1CCN(S(=O)(=O)c2ccccc2)CC1	-0.557
O=c1[nH]cnc2cc(Cl)ccc12	-0.0535
Cc1cc(-c2nnco2)c(C)n1-c1ccccc1	-0.226
COc1ccc(Oc2nc(SC)nc3ccsc23)cc1	-0.225
CCCCNC(=O)C1CC(=O)N(CCC(C)C)C1 (stereo unspecified)	-0.0189
COc1ccc(C(=O)NCc2nnc(SCC(=O)N3CCc4ccccc43)n2C2CCCCC2)cc1	0.327
O=C(Cn1nnc2ccccc2c1=O)NCCc1ccccc1	-0.04
N#C/C(=C\c1cccnc1)C(=O)Nc1ccccc1	-0.204
O=C(O)CCC(=O)Nc1nc(-c2ccccc2)cs1	0.102
Cc1ccc(-n2c(-c3ccccc3)nnc2-c2cccs2)cc1	-0.571
COc1ccc(C(=O)N(Cc2ccco2)C(C(=O)NC2CCCC2)c2ccc(O)cc2)cc1OC (stereo unspecified)	-0.499
O=c1c2ccc(-c3nnc4n3-c3ccccc3SC4)cc2nc2n1CCCCC2	-0.365
CCN(CC)c1ncnnc1-c1ccccc1	-0.267
CCOc1ccc2[nH]c(=O)c(CN(Cc3ccc(C)cc3)C(=O)N3CCCC3)cc2c1	0.457
O=S(=O)(Nc1ncn[nH]1)c1ccc(Cl)cc1	0.0176
Cc1nc2ccc(NC(=O)N3CCN(c4ccccn4)CC3)cc2s1	0.0129
CCCCSc1nc2ccccc2n1CC(=O)O	-0.412
O=C(CCc1nc2ccccc2[nH]1)Nc1ccc(F)cc1	0.571
Cn1c(C(C#N)C(=O)c2sc3ccccc3c2Cl)nc2ccccc21 (stereo unspecified)	-0.0401
Cc1onc(-c2ccccc2Cl)c1C(=O)Nc1cc(=O)n(C)c(=O)n1C	-0.162

Structure (SMILES)	z-score
Cc1ccsc1/C=N/n1cnc2sc(C)c(C)c2c1=O	0.277
CC(=O)Nc1ccc(S(=O)(=O)N(C)CC(=O)OCC(=O)Nc2ccc3c(c2)OCO3)cc1	0.11
O=C(CCn1c(=O)c2ccccc2n(Cc2cccnc2)c1=O)NCc1ccc2c(c1)OCO2	0.361
Cn1c(=O)n(C)c2cc([N+](=O)[O-])c(N3CCN(S(=O)(=O)c4ccc5ccccc5c4)CC3)cc21	-1.61
O=C(Nc1ccccc1)c1c(F)c(F)c(F)c(F)c1F	-0.122
NC(=O)C1CCN(C(=O)c2ccc(NC3=NC4CS(=O)(=O)CC4S3)cc2)CC1 (stereo unspecified)	-0.161
Cc1snc2sc(C(=O)c3ccc(Br)cc3)c(N)c12	-0.378
Cc1ccc2c(c1)c(CC(=O)Nc1ccc(C)c(F)c1)c(C(=O)O)n2C	-0.802
CCOC(=O)NC(=O)CSc1nnnn1-c1ccc(C)cc1	-0.044
Cc1cc(Br)ccc1NCc1ccccn1	0.00249
O=c1c2ccccc2c(-c2ccccc2)nn1Cc1c(Cl)cccc1Cl	-0.0848
CCOC(=O)C1=C(CS(=O)(=O)c2ccccc2)NC(=O)NC1c1ccccc1 (stereo unspecified)	0.642
Fc1ccc(-c2nn3c(C4COc5ccccc5O4)nnc3s2)cc1 (stereo unspecified)	0.848
CC1(C)OC(=O)CC1C(=O)NCc1ccccc1 (stereo unspecified)	0.573
CCOc1ccc(Cl)cc1S(=O)(=O)N1CCN(c2ccc(C)c(C)c2)CC1	-0.391
C/C(Cn1cnc([N+](=O)[O-])n1)=N\NC(=O)c1cccc(F)c1	-0.0241
COc1cc(/C=C/c2nc(-c3ccccc3O)n[nH]2)cc(OC)c1OC	-0.401
CCc1ccc(OCC(O)CN2CCC(CN3C(=O)c4cccc5cccc(c45)C3=O)CC2)cc1 (stereo unspecified)	-0.57
COc1c(/C=N/NC(=O)c2ccccc2O)c(CCN(C)C(C)=O)cc2c1OCO2	-0.0341
